Measurements as given in the supplement of paper PMC6746778.
“And” between values parts separate entries of the source, which are not always exact repeats. Equal values may be shown once. Some of the results follow. Repeats are few or missing, and single values can be far off.

Tests used:
Assay in all cases: proliferation Z-score within cell line (SRB, relative to all inhibitors screened on that line); triple-negative breast cancer lines and a kinase inhibitor library; SRB is the sulforhodamine B protein stain; higher = less growth inhibition (more resistant)
Details in all cases: concentration: 1 µM; 4 days
Bt20 = tested on: Bt20
Bt549 = tested on: Bt549
HCC1143 = tested on: HCC1143
HCC1806 = tested on: HCC1806
HCC1937 = tested on: HCC1937
HCC38 = tested on: HCC38
HCC70 = tested on: HCC70
Hs578T = tested on: Hs578T
MDA-MB-231 = tested on: MDA-MB-231
MDA-MB-435s = tested on: MDA-MB-435s
MDA-MB-436 = tested on: MDA-MB-436
MDA-MB-453 = tested on: MDA-MB-453
MDA-MB-468 = tested on: MDA-MB-468
SKBR7 = tested on: SKBR7
SUM1315MO2 = tested on: SUM1315MO2
SUM149PT = tested on: SUM149PT
SUM159PT = tested on: SUM159PT
SUM185PE = tested on: SUM185PE
SUM229PE = tested on: SUM229PE
SUM52PE = tested on: SUM52PE
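Also: Single-dose primary screen of a 378-member kinase inhibitor library in 96-well plates, with growth read as absorbance of protein-bound SRB dye after TCA fixation.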

Structure (SMILES) | proliferation Z-score within cell line (Bt20) | proliferation Z-score within cell line (Bt549) | proliferation Z-score within cell line (HCC1143) | proliferation Z-score within cell line (HCC1806) | proliferation Z-score within cell line (HCC1937) | proliferation Z-score within cell line (HCC38) | proliferation Z-score within cell line (HCC70) | proliferation Z-score within cell line (Hs578T) | proliferation Z-score within cell line (MDA-MB-231) | proliferation Z-score within cell line (MDA-MB-435s) | proliferation Z-score within cell line (MDA-MB-436) | proliferation Z-score within cell line (MDA-MB-453) | proliferation Z-score within cell line (MDA-MB-468) | proliferation Z-score within cell line (SKBR7) | proliferation Z-score within cell line (SUM1315MO2) | proliferation Z-score within cell line (SUM149PT) | proliferation Z-score within cell line (SUM159PT) | proliferation Z-score within cell line (SUM185PE) | proliferation Z-score within cell line (SUM229PE) | proliferation Z-score within cell line (SUM52PE)
CN1CCCN(C(=O)c2cccc(-c3ccc(/C=C4/C(=O)Nc5ccc(Cl)cc54)o3)c2)CC1 | -1.37 | 0.313 | 0.0471 | 0.562 | 0.206 | 0.506 | -0.0269 | 0.709 | -0.304 | -0.152 | -0.403 | 0.509 | 0.321 | 0.422 | -0.505 | -0.269 | 0.241 | -0.291 | -0.78 | -0.459
COc1cc2ncc(-c3ccccc3)nc2cc1OC [Tyrphostin AG 1296] | 0.393 | 0.136 | 0.327 | 0.172 | 0.387 | 0.391 | 0.276 | 0.503 | 0.929 | 0.442 | 0.466 | 0.436 | 0.7 | -0.461 | 0.427 | 0.0716 | 0.333 | 0.23 | 0.237 | 0.776
N#CC[C@H](C1CCCC1)n1cc(-c2ncnc3[nH]ccc23)cn1 | 0.186 and 0.449 | 0.607 and 0.852 |  | 0.677 and 0.421 |  | 0.564 and 0.529 |  | 0.754 and 0.75 | 0.538 and 0.556 | 0.609 and 0.443 |  | 0.924 and 0.946 | 0.45 and 0.481 |  | 0.613 and 0.809 | 0.733 and 0.711 |  | 0.633 and 0.26 | 0.501 and 0.408 | 0.689 and 0.799
CNC(=O)c1cc(Oc2ccc(NC(=O)Nc3cc(C(C)(C)C)nn3-c3ccc4ncccc4c3)c(F)c2)ccn1 [DCC-2036 (Rebastinib)] | 1.11 | -0.0372 | 1.43 | 1.2 | 1.07 | 0.635 | 0.926 | 0.348 | -0.707 | -0.734 | 1.03 | -0.776 | 1.59 | 0.573 | -0.272 | 1.16 | 0.749 | -1.4 | 1.23 | -1.19
C=CC(=O)Nc1cccc(Nc2nc(Nc3ccc(Oc4ccnc(C(=O)NC)c4)cc3)ncc2F)c1 | 0.563 | 0.0113 | 0.61 | 0.727 | 0.578 | 0.533 | 0.62 | 0.504 | 0.437 | 0.592 | 0.555 | 0.839 | 0.156 | 0.669 | -0.112 | 0.299 | 0.525 | -0.0124 | 0.184 | -0.0455
C=CC(=O)Nc1cc(Nc2nccc(-c3cn(C)c4ccccc34)n2)c(OC)cc1N(C)CCN(C)C | 0.0191 | 0.325 | -0.867 | -1.55 | -1.43 | 0.299 | 0.516 | 0.563 | 0.338 | 0.726 | 0.456 | -1.14 | -1.69 | 0.897 | -0.0104 | -0.209 | 0.39 | -0.215 | -0.883 | 0.333
Cc1cc(C(C)Nc2ccccc2)c2nc(N3CCOCC3)cc(=O)n2c1 (configuration not stated) | 1.11 | -0.218 | -0.586 | -0.144 | -2.03 | 0.261 | -1.72 | 0.375 | 0.837 | 0.697 | -2.07 | 0.774 | -0.126 | 0.0525 | 0.33 | 0.686 | -1.24 | 0.986 | 0.626 | 0.292
O=C(NCc1ccccc1)c1csc(Nc2ccncn2)n1 [Thiazovivin] | 0.498 | 0.094 | 0.651 | 0.293 | 0.634 | 0.274 | 0.509 | 0.292 | 0.795 | 0.72 | 0.998 | 0.718 | 0.79 | -0.257 | 0.63 | 0.631 | 0.478 | 1.25 | 0.837 | 1.62
CCn1c(-c2nonc2N)nc2c(C#CC(C)(C)O)ncc(OC[C@H]3CCCNC3)c21 | -1.66 | -1.28 | 0.784 | 0.485 | 0.689 | 0.0203 | 0.506 | -1.15 | 0.762 | 0.846 | 0.448 | -2.17 | -0.994 | 0.977 | 0.493 | -1.64 | 0.526 | -1.52 | 0.761 | -1.09
CC(C)N(CCC(=O)c1ccc2ccccc2c1)Cc1ccccc1 | 0.695 | 0.452 | 0.512 | 0.443 | 1.04 | 0.328 | 0.477 | 0.537 | 0.798 | 0.687 | -0.614 | 0.506 | 0.669 | 0.431 | 1.06 | 0.699 | 0.419 | 0.421 | 0.31 | 0.849
CC1(C)CNc2cc(NC(=O)c3cccnc3NCc3ccncc3)ccc21 [Motesanib Diphosphate (AMG-706)] | 0.878 | 0.544 | -1.44 | 1.1 | -1.58 | 0.506 | -1.88 | 0.337 | 0.901 | 0.953 | -1.45 | 0.291 | 0.841 | 0.024 | 0.735 | 0.962 | -1.96 | 1.06 | 1.67 | 1.03
CN1CCN(CCOc2cc(OC3CCOCC3)c3c(Nc4c(Cl)ccc5c4OCO5)ncnc3c2)CC1 [Saracatinib (AZD0530)] | 0.0557 | 0.731 | -0.409 | -2.04 | -0.887 | -0.39 | 0.516 | 0.41 | -0.842 | 0.532 | 0.151 | 0.855 | 0.397 | 0.695 | -0.189 | 0.208 | 0.31 | 1.68 | -0.45 | 0.659
COc1cc(F)c(F)c(Nc2ccc(I)cc2F)c1NS(=O)(=O)C1(C[C@H](O)CO)CC1 [Refametinib (RDEA119, Bay 86-9766)] | 0.00543 | -0.386 | -0.388 | -1.92 | 0.485 | -0.747 | 0.0459 | -1.33 | -2.09 | -2.01 | 0.0227 | -1.47 | -0.377 | 0.0902 | -0.177 | -2.78 | 0.52 | -0.412 | -2.45 | -1.14
C[C@@H]1COC(Nc2ccc3ncnc(Nc4ccc(OCc5nccs5)c(Cl)c4)c3c2)=N1 [Varlitinib] | 0.611 | 1 | 0.728 | 0.592 | 0.797 | 0.715 | 0.836 | 0.782 | 0.86 | 1.05 | 1.11 | 0.976 | 0.239 | 1.04 | 1.07 | 0.251 | 0.723 | 0.858 | 0.697 | 1.29
CC[C@H](Nc1ncnc2[nH]cnc12)c1nc2cccc(F)c2c(=O)n1-c1ccccc1 [CAL-101 (Idelalisib, GS-1101)] | 0.653 | 0.366 | 0.787 | 0.0855 | 0.763 | 0.465 | 0.623 | 0.518 | 0.961 | 0.725 | 0.698 | 0.78 | 0.372 | 1.03 | 0.376 | 0.732 | 0.542 | 0.676 | 0.453 | 0.724
CN1CCN(c2ccc3nc(-c4c(N)c5c(F)cccc5[nH]c4=O)[nH]c3c2)CC1 [Dovitinib (TKI-258) Dilactic Acid] | 0.433 | 0.442 | 0.343 | 0.115 | -0.0977 | 0.528 | 0.591 | 0.649 | -0.225 | -0.448 | -0.371 | 0.785 | -0.222 | 0.245 | -1.08 | -0.242 | 0.59 | -1.04 | 0.128 | -1.22
O=Nc1c(-c2c(O)[nH]c3cc(Br)ccc23)[nH]c2ccccc12 | 1.09 | 0.784 | 0.498 | 0.898 | 0.875 | 0.443 | 0.642 | 0.516 | 0.363 | 0.537 | 1.18 | 0.545 | 0.37 | 0.829 | 0.49 | 0.455 | 0.322 | 0.717 | 1.71 | 0.558
C=CC(=O)Nc1cccc(Oc2nc(Nc3ccc(N4CCN(C)CC4)cc3)ncc2Cl)c1 | -1.03 | -0.308 | 0.639 | -1.99 | 0.772 | 0.509 | 0.928 | 0.181 | -1.48 | -1.27 | 0.493 | -1.24 | -1.81 | -0.21 | -1.25 | -2.43 | 0.547 | -0.906 | -0.962 | -1.28
O=C(Nc1ccc(-c2ccnc(Nc3ccc(N4CCOCC4)cc3)n2)cc1)C1CCCN1 (configuration not stated) | 0.827 | 0.622 | 0.312 | 0.424 | 0.64 | 0.365 | 0.596 | 0.279 | 0.236 | 0.778 | 0.508 | 0.395 | 0.266 | 0.055 | 0.799 | 0.793 | 0.526 | 0.705 | 1.13 | 0.842
O=C1c2ccccc2-c2n[nH]c3cccc1c23 | 0.667 | 0.474 | -0.648 | 0.523 | -1.94 | 0.545 | -1.89 | 0.626 | 0.771 | 0.727 | -1.84 | 0.717 | 0.354 | 0.305 | 0.812 | 0.657 | -1.15 | 0.301 | 0.475 | 0.875
C[C@@H]1CCN(C(=O)CC#N)C[C@@H]1N(C)c1ncnc2[nH]ccc12 |  | 0.792 and 0.444 | 0.749 and 0.316 | 0.817 and 0.744 | 0.771 and 0.641 | 0.69 and 0.431 | 0.847 and 0.507 | 0.803 and 0.538 | 0.889 and 0.42 | 1.01 and 0.57 | 0.735 and 0.535 | 1.08 and 0.767 | 0.778 and 0.397 | 0.778 and 0.652 | 0.944 and 0.437 | 0.971 and 0.55 | 0.741 and 0.558 |  | 0.846 and 0.481 | 
CN(c1ncccc1CNc1nc(Nc2ccc3c(c2)CC(=O)N3)ncc1C(F)(F)F)S(C)(=O)=O | 0.859 and 0.327 |  |  | -0.436 and -1.01 | 0.805 and 0.401 | 0.479 and 0.218 |  | 0.54 and 0.237 |  |  | 0.979 and 0.749 | 0.738 and 0.334 | 0.841 and 0.417 |  | 0.487 and 0.478 |  |  | 0.914 and 0.546 |  | 0.663 and 0.261
